Data taken from article PMC4336329 (PLoS ONE, 2015).
Among all 310,000 compounds or so, about 14,000 (4.5%) showed an effect of 50% or more. The effect is printed as a negative number. Some of the results follow.

Biological target: human ether-à-go-go-related gene (hERG) potassium channel (human, UniProt Q12809)
Assay: primary screen, population patch clamp on CHO cells stably expressing hERG
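Note: peak tail current of the secondary pulse compared with the same well before compound.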

Sequence of human ether-à-go-go-related gene (hERG) potassium channel (Q12809 whole entry, looked up): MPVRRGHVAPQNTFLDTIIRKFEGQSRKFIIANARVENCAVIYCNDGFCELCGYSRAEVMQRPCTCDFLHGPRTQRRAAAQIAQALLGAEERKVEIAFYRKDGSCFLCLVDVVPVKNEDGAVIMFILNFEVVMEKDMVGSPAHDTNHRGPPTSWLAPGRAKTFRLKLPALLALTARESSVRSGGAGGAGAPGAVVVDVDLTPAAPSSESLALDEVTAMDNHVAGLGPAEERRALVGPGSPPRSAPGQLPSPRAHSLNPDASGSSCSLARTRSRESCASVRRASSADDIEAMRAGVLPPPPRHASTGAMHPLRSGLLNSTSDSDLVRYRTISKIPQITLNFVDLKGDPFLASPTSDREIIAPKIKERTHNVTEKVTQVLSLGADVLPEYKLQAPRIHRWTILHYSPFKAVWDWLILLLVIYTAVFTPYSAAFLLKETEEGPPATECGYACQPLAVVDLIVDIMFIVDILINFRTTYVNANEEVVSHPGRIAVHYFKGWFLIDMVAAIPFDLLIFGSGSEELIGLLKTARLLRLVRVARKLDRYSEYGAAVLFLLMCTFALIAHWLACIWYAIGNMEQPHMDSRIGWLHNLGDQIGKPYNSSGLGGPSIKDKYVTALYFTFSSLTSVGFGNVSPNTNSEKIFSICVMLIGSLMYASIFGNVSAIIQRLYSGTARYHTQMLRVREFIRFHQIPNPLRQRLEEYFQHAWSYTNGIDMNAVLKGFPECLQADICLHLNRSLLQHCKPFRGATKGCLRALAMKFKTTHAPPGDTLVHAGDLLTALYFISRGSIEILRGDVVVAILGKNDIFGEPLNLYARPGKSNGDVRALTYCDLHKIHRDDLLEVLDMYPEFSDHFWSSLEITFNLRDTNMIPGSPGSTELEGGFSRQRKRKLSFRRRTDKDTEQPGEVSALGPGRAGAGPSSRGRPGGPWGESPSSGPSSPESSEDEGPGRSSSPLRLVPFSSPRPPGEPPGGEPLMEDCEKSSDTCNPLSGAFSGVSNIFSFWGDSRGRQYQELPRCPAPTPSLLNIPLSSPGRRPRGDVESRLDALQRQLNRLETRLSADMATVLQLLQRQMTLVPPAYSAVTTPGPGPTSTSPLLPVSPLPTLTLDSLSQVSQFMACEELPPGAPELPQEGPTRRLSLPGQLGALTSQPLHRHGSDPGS

Row | Compound | hERG current change (%, negative = inhibition) at 10uM
1 | CN(C(=O)CCNC(=O)Cn1cnc2ccccc2c1=O)c1ccccc1F | 5.75%
2 | O=C(c1ccccc1NS(=O)(=O)c1cccc(C(F)(F)F)c1)N1CCc2ccccc21 | 31.8%
3 | COc1cc(C(=O)N2CCN(Cc3ccccn3)CC2)cc(OC)c1OC.O=C(O)C(=O)O | 18.9%
4 | O=C(CN1c2cccc3cccc(c23)S1(=O)=O)Nc1ccccc1 | 24.3%
5 | Cc1csc2nc(CSc3nc4ccccc4o3)cn12 | -11.5%
6 | NS(=O)(=O)c1ccc(CCNC(=O)c2ccc(C(=O)c3ccccc3)cc2)cc1 | 21.4%
7 | COc1ccc(/C=N/NS(=O)(=O)c2ccccc2)cc1OC | 1.45%
8 | CC(C)Sc1nnc(CNC(=O)C23CC4CC(CC(C4)C2)C3)n1Cc1ccccc1 | -15.9%
9 | O=C(O)c1ccccc1C(=O)NNc1ccc(Cl)cc1Cl | 1.56%
10 | CCCCOC(=O)/C(=C/c1cn(C)c2ccccc12)NC(=O)c1ccc(OC)cc1 | -2.29%
11 | CC1=C(C)CC(C(=O)Nc2nccs2)C(C(=O)O)C1 (stereo not drawn) | 28.7%
12 | Cc1csc(NC(=O)CSCc2c(C)noc2C)n1 | -2.35%
13 | Fc1ccc2c(c1)C(c1ccncc1)=NNC(c1cccnc1)=N2 | -18.6%
14 | CCOC(=O)c1ccc(N2C(=O)c3n[nH]c(-c4ccco4)c3C2c2cccc([N+](=O)[O-])c2)cc1 (stereo not drawn) | -13.9%
15 | O=C(CN(c1ccc2c(c1)OCCO2)S(=O)(=O)c1ccccc1)NCc1ccc(Cl)cc1 | -6.6%
16 | O=C(CNC(=O)OCc1ccccc1)NC1CCCCNC1=O (stereo not drawn) | 16.6%
17 | COc1ccc(C(=O)Nc2ccc(N3CCN(C(=O)c4ccccc4)CC3)cc2)cc1[N+](=O)[O-] | -67.2%
18 | CCN1CCN(c2cc(C)c3cc(NC(=S)N4CCCCC4)ccc3n2)CC1 | -50.1%
19 | CC(=O)N1CCN(c2nnc(-c3ccccc3)c3ccccc23)CC1 | 3.22%
20 | NC(=O)CC(NC(=O)c1cccc(Br)c1)c1ccc(N2CCN(c3ccccn3)CC2)c([N+](=O)[O-])c1 (stereo not drawn) | 1.19%
21 | CCCCCSc1ncccc1C(=O)O | 21.7%
22 | Cc1ccccc1NC(=O)C(C)c1ccc(-c2ccccc2)c(F)c1 (stereo not drawn) | -1.3%
23 | Cc1ccc2c(c1)c1c3n2CCN(C(=O)CCl)C3CCC1 (stereo not drawn) | -15.1%
24 | NS(=O)(=O)c1ccc(CNC(=O)c2ccc(Cl)cc2[N+](=O)[O-])cc1 | -3.98%
25 | CN(C)c1cccc(C(=O)NC2CCCc3ccccc32)c1 (stereo not drawn) | 0.528%
26 | Cc1cccc(-n2cc(CN3CCN(C(=O)c4ncn[nH]4)CC3)c(-c3cccc(F)c3)n2)c1 | -16.5%
27 | C#CCOCCOCCOCCNc1nc(N2CCN(C(=O)C(Cc3ccc(O)cc3)n3cc(C(N)CC(C)C)nn3)CC2)nc(N2CCN(C(=O)C(Cc3cc4ccccc4[nH]3)n3cc(C(N)C(C)CC)nn3)CC2)n1.Cl (stereo not drawn) | 10.3%

Row | Compound | hERG current change (%, negative = inhibition) at 10uM
28 | Br.N=C1c2ccccc2CN1NC(=O)c1cccc(S(=O)(=O)N2CCCCC2)c1 | 13.5%
29 | CC(C)NC(=O)c1ccc(N(Cc2ccc(Cl)cc2)S(C)(=O)=O)cc1 | -17.4%
30 | Cc1nc(SCC(=O)c2ccccc2)[nH]c(=O)c1Oc1ccc(Cl)cc1 | 18.4%
31 | CCCC(=O)NC(Nc1ccccc1F)C(Cl)(Cl)Cl (stereo not drawn) | -8.18%
32 | CCC(C(=O)O)N1C(=O)c2ccccc2C1=O (stereo not drawn) | 10.1%
33 | Cc1oc2ccc(O)c(CN(C)C)c2c1C(=O)c1ccccc1 | -42.4%
34 | CC(=O)Nc1ccc(C)cc1 | 12.2%
35 | Clc1ccc(/C=C/c2nc(Cl)c(-c3ccc(Cl)cc3)c(Cl)n2)cc1 | 23.9%
36 | O=C1c2ccccc2NC(c2ccc(Cl)cc2Cl)N1Cc1ccccc1 (stereo not drawn) | -2.71%
37 | Cc1ccccc1NC(=S)NNC(=O)c1ccncc1 | 11.3%
38 | CC(=O)CSc1nc2c(c(=O)[nH]c(=O)n2C)n1Cc1ccccc1Cl | 9.56%
39 | O.O=c1c(O)c(-c2ccc(O)c(O)c2)oc2cc(O)cc(O)c12 | 0.53%
40 | COC(=O)Cc1[nH]nc2c1C(c1c[nH]c3ccccc13)C(C#N)=C(N)O2 (stereo not drawn) | 17.8%
41 | Cc1cc(C)nc(N2CCC(C(=O)NCc3ccccc3)CC2)n1 | 3.44%
42 | CC(C)(C)c1cc(C(=O)NNc2cc(C(F)(F)F)ccc2Cl)n(Cc2ccccc2)n1 | -2.61%
43 | CC(=O)N1c2ccc(S(=O)(=O)N3CCC(C(=O)NCc4ccc(N(C)C)cc4)CC3)cc2CC1C (stereo not drawn) | 18.8%
44 | CCOc1ccc(CN(C(=O)c2ccco2)C2CCS(=O)(=O)C2)cc1 (stereo not drawn) | -0.726%
45 | O=C(Cn1c(CN2CCCCC2)nc2ccccc2c1=O)NCc1ccco1 | -15.4%
46 | CCOC(=O)C(=CNc1cc(C)nn1-c1ccc(C)cc1)C(=O)OCC | -25.5%
47 | COc1ccc(Nc2nc(N3CCCCC3)nc(N3CCCCC3)n2)c(OC)c1 | 15.2%
48 | COc1ccc(Cl)cc1NC(=S)NCCSc1ccc(C)cc1 | 11.9%
49 | O=C(NC1CC(=O)N(c2ccccc2)C1)C1CC1 (stereo not drawn) | 0.461%
50 | CSCCC(NC(=O)c1cccc([N+](=O)[O-])c1)C(=O)O (stereo not drawn) | 4.08%
51 | O=C(O)CSCC(=O)c1ccccc1 | 6.46%
52 | COc1ccc(C2CC(=O)c3cnc(N4CCN(Cc5ccccc5)CC4)nc3C2)cc1 (stereo not drawn) | -5.45%
53 | CCOC(=O)c1c(C)[nH]c(C(=O)Nc2ccc(NC(C)=O)cc2)c1C | 2.71%
54 | Cc1ccc(-c2ncns2)cc1 | 1.96%
